The list shows a part of the results, in another mix than the full data. For some assays here: At the low end of the ranking the order means little. The list shows a part of the results. For some assays here: The source does not settle which construct or isoform was used.
Experiments:
Assay in all cases: universal protein binding microarray (PBM)
Details in all cases: transcription factors of Arabidopsis thaliana; high values mean tight binding; most listed sequences are background and not binding sites; double strand, one strand shown
GST-ANAC092(1-176) = target: T1, GST-ANAC092(1-176) (UniProt Q9FKA0)
T1 sequence: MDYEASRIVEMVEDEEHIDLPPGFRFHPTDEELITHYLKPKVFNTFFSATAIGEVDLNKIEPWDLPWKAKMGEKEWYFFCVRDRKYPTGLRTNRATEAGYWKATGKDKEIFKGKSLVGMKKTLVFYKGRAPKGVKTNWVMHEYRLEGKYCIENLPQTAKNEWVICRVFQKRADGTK

GST-NTL6(1-168) = GST-NTL6(1-168) (UniProt Q9SCK6)
GST-ANAC019 NAC domain = target: T2, GST-ANAC019 NAC domain (UniProt Q9C932)
T2 sequence: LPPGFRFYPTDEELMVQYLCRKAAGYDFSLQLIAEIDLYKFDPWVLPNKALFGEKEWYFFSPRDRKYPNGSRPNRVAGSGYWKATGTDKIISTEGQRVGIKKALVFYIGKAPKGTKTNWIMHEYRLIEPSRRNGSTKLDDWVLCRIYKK

GST-ANAC055(1-171) = target: T3, GST-ANAC055(1-171) (UniProt Q9LDY8)
T3 sequence: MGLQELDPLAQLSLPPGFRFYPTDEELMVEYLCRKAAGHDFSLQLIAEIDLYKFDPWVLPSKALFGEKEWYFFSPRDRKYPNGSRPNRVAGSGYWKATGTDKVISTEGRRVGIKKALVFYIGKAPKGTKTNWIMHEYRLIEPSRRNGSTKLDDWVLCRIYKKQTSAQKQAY

GST-ATAF1 NAC domain = target: T4, GST-ATAF1 NAC domain (UniProt Q39013)
T4 sequence: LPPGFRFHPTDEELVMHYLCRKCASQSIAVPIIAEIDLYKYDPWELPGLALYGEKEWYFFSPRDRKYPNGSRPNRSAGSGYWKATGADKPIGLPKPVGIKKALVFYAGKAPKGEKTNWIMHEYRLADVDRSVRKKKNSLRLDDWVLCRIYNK

[1] = target: T5, GST-ANAC092(1-285) full length (UniProt Q9FKA0)
T5 sequence: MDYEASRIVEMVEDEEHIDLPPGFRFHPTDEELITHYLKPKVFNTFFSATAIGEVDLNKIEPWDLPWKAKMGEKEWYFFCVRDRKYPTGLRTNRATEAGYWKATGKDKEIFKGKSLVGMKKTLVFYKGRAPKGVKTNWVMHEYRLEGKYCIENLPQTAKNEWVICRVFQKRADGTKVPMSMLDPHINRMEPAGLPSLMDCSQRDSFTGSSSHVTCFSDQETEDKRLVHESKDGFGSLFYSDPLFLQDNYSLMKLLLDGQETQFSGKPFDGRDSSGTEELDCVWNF

GST-NAP(1-166) = target: T6, GST-NAP(1-166) (UniProt O49255)
T6 sequence: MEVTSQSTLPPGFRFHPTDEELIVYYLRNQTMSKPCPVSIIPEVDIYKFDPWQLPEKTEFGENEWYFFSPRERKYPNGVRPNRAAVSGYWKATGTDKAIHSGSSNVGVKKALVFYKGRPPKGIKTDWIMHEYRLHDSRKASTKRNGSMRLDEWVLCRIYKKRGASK

GST-NST2(1-184) = target: T7, GST-NST2(1-184) (UniProt Q9M274)
T7 sequence: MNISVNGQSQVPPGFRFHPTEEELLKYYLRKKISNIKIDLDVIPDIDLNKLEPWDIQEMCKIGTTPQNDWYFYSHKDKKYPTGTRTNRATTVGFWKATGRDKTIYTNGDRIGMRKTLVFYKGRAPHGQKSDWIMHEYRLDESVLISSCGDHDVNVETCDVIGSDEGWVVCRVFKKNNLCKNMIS

GST-NTL8 NAC domain = target: T8, GST-NTL8 NAC domain (UniProt Q9XIN7)
T8 sequence: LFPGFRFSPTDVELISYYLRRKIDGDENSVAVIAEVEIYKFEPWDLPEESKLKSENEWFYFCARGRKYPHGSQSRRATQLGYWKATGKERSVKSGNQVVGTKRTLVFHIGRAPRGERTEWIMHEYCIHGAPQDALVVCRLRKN

GST-SND1(1-203) = target: T9, GST-SND1(1-203) (UniProt Q9LPI7)
T9 sequence: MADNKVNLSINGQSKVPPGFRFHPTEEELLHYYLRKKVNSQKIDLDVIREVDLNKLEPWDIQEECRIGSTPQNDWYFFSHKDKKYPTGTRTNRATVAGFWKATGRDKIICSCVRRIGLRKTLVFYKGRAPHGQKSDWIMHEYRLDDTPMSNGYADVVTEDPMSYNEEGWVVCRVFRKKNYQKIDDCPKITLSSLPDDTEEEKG

GST-VND3 NAC domain = target: T10, GST-VND3 NAC domain (UniProt Q9FH59)
T10 sequence: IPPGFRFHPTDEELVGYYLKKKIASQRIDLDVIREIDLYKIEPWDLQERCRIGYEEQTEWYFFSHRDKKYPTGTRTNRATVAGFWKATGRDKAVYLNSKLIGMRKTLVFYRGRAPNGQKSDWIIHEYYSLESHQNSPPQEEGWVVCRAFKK

GST-VND7 NAC domain = target: T11, GST-VND7 NAC domain (UniProt Q9C8W9)
T11 sequence: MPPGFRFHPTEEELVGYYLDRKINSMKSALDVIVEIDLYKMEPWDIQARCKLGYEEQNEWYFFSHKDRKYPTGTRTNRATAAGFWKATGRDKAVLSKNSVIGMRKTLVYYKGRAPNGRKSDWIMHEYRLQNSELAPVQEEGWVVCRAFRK

[2] = target: T12, GST-VOZ2 (Arabidopsis thaliana) (UniProt Q9SLB9)
T12 sequence: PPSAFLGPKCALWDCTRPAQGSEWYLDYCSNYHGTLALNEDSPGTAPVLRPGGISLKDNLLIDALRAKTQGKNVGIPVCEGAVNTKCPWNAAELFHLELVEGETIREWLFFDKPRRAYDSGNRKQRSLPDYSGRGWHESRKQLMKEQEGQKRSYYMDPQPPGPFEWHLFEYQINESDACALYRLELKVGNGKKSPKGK

GST-WRKY1(266-371) = GST-WRKY1(266-371) (UniProt Q9SI37)
Sequence of GST-WRKY1(266-371) (Q9SI37 266-371, chain 1 of 2): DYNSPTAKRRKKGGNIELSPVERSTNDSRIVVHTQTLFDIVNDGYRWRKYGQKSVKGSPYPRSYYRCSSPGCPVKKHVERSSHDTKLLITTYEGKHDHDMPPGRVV

Sequence of UniProt Q9SCK6 (Q9SCK6 1-168): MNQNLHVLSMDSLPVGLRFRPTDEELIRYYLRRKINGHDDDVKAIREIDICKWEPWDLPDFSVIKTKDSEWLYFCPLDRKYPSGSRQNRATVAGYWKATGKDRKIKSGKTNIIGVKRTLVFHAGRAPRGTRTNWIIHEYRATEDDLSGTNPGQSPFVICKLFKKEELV

Row | Sequence | binding signal (GST-ANAC092(1-176)) [E-score] | binding signal (GST-NTL6(1-168)) [E-score] | binding signal (GST-ANAC019 NAC domain) [E-score] | binding signal (GST-ANAC055(1-171)) [E-score] | binding signal (GST-ATAF1 NAC domain) [E-score] | binding signal [1] [E-score] | binding signal (GST-NAP(1-166)) [E-score] | binding signal (GST-NST2(1-184)) [E-score] | binding signal (GST-NTL8 NAC domain) [E-score] | binding signal (GST-SND1(1-203)) [E-score] | binding signal (GST-VND3 NAC domain) [E-score] | binding signal (GST-VND7 NAC domain) [E-score] | binding signal [2] [E-score] | binding signal (GST-WRKY1(266-371)) [E-score]
1 | CGGTCAAC | 0.00951 | 0.00336 | 0.00915 | -0.0475 | -0.012 | -0.0218 | 0.118 | -0.0121 | -0.00537 | -0.0556 | -0.0761 | -0.0616 | 0.00959 | 0.495
2 | AGTGGTCA | -0.092 | -0.0526 | -0.129 | 0.0341 | -0.0146 | -0.135 | -0.088 | -0.0548 | -0.0788 | -0.114 | -0.0316 | -0.114 | -0.0243 | 0.436
3 | ATGAGTCA | -0.211 | 0.0338 | -0.0568 | -0.0615 | -0.0441 | -0.0141 | -0.134 | -0.0594 | -0.0704 | -0.0636 | -0.00916 | 0.0214 | -0.0036 | 0.427
4 | GCGGTCAA | -0.141 | -0.125 | -0.101 | -0.179 | -0.176 | -0.0898 | -0.0808 | -0.081 | -0.0596 | -0.116 | -0.16 | -0.191 | 0.0293 | 0.487
5 | CCGGGTCA | -0.136 | -0.311 | -0.137 | -0.339 | -0.24 | -0.242 | -0.158 | -0.224 | -0.0494 | -0.148 | -0.297 | -0.143 | -0.075 | 0.443
6 | CCTGGTCA | -0.0922 | -0.108 | -0.125 | -0.177 | -0.16 | -0.219 | -0.129 | -0.17 | -0.104 | -0.0995 | -0.128 | -0.122 | -0.244 | 0.454
7 | GACCAGTC | -0.0584 | -0.173 | -0.045 | -0.153 | -0.0894 | -0.213 | -0.14 | -0.109 | -0.0917 | -0.194 | -0.11 | -0.146 | -0.023 | 0.406
8 | TGACCCCA | -0.0806 | -0.0433 | 0.0651 | -0.146 | -0.0934 | -0.0864 | -0.0249 | 0.0103 | 0.0351 | -0.135 | -0.188 | 0.00782 | -0.0154 | 0.428
9 | TCGAGTCA | -0.244 | -0.127 | -0.205 | -0.194 | -0.179 | -0.197 | 0.00811 | -0.177 | -0.101 | -0.14 | -0.0699 | -0.155 | -0.0618 | 0.417
10 | ATGACCGA | -0.23 | -0.0888 | -0.133 | -0.082 | -0.174 | -0.119 | 0.0175 | -0.0516 | -0.021 | -0.107 | -0.0852 | -0.171 | -0.078 | 0.405
11 | AGTCGGTC | -0.0812 | -0.0934 | -0.0594 | -0.231 | -0.21 | -0.0561 | -0.0599 | -0.113 | -0.0237 | -0.0962 | -0.121 | -0.0858 | -0.153 | 0.403
12 | GGCTGACC | -0.0377 | -0.164 | 0.039 | -0.159 | -0.174 | -0.151 | -0.0919 | -0.0996 | -0.0387 | -0.155 | -0.175 | -0.037 | -0.135 | 0.431
13 | GACCGTCA | -0.0207 | -0.0953 | 0.00441 | -0.115 | -0.161 | -0.135 | 0.0503 | -0.0906 | -0.0278 | -0.103 | -0.0567 | 0.0207 | -0.0505 | 0.407
14 | GCGAGTCA | -0.0133 | -0.0496 | 0.0345 | -0.0343 | 0.0411 | -0.085 | -0.093 | -0.0468 | 0.034 | -0.0337 | -0.0278 | -0.026 | -0.103 | 0.414
15 | GACGACCA | -0.0675 | -0.0667 | -0.0734 | -0.0663 | -0.208 | -0.163 | 0.00882 | -0.125 | -0.154 | -0.123 | -0.201 | -0.167 | -0.127 | 0.43
16 | CGGTCGTC | -0.194 | -0.275 | -0.231 | -0.315 | -0.244 | -0.235 | -0.0668 | -0.227 | -0.119 | -0.0845 | -0.158 | -0.093 | -0.116 | 0.41
17 | GCGGGTCA | -0.0558 | -0.16 | -0.00954 | -0.177 | -0.181 | -0.0549 | -0.176 | -0.0922 | -0.107 | 0.0205 | -0.179 | -0.096 | 0.102 | 0.421
18 | ACTTGACT | -0.0787 | -0.0451 | 0.0123 | 0.0752 |  | 0.0808 | -0.0619 | 0.0742 | -0.0789 | 0.0252 | 0.0437 | -0.00826 | -0.0659 | 0.456
19 | CTTGGTCA | -0.084 | -0.0225 | -0.0252 | -0.119 | -0.182 | -0.0488 | -0.127 | -0.122 | -0.0354 | -0.113 | 0.00324 | 0.0376 | -0.145 | 0.429
20 | ATAGGTCA | -0.245 | -0.0494 | -0.0749 | -0.0219 | -0.0392 | -0.0474 | -0.0764 | -0.0522 | -0.126 | -0.217 | 0.00536 | -0.101 | -0.0841 | 0.409
21 | GACTTTGA | -0.151 | -0.0403 | -0.0478 | 0.0285 | 0.0117 | -0.0469 | -0.132 | -0.00758 | -0.0968 | -0.0442 | -0.0258 | -0.0241 | 0.114 | 0.432
22 | AGTCGTGC | -0.0546 | -0.0574 | 0.412 |  | 0.264 | -0.0329 | 0.041 | -0.0169 | -0.12 | -0.117 | 0.324 | 0.273 | -0.0674 | 0.294
23 | AGGGTCAA | -0.0737 | 0.00457 | -0.013 | -0.143 | -0.161 | -0.0237 | -0.0874 | -0.089 | 0.0535 | -0.0133 | -0.0752 | -0.0515 | -0.00847 | 0.483

Source: PMC4081100
